Publication PMC12136788
This is one part of the list.

T1: UNK ZnF1-3 (human, UniProt Q9C0B0 31-174)
T1 sequence: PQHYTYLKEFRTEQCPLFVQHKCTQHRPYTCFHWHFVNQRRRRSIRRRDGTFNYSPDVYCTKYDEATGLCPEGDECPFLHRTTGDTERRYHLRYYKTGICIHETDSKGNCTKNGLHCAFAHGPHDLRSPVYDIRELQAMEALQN

B1: 73686211_73694862_353_CDS_ENSMUSG00000029152_ENSMUST00000031038|mouse|control|control (ssRNA)
RNA: GGGAGUUCUACAGUCCGACGAUCUGAACCAUAUUUUGGAUGACUUGACAGGAUUCCUUUACUAAUUAAUCCUUGAGUAAUCAGCAUACUUGUGGCAGCCAACGGCACAGAUCUGAACCAGAAGCACUCUUCAUGGCACUCUGCCAACAGAGGAUUGAGCAUCA
B2: 32187752_32189466_2706_3pUTR_ENSMUSG00000029765_ENSMUST00000115096|mouse|control|control (ssRNA)
RNA: GGGAGUUCUACAGUCCGACGAUCACAGAUCUUCAAAGGUACAGUUGACACCUGCUGACAGCUCCGGGACAUUGUAUGUCUCUAGGACCAGCAGCACGUUGUACUGAGAGACAGAGAUGUUGUUGGGAUGGACCGUCAGCCGGACAACAGAGGAUUGAGCAUCA
B3: chr1:29069439:29069440:+_ENSG00000198492_ENST00000541996|hu_hu|motif|central (ssRNA)
RNA: GGGAGUUCUACAGUCCGACGAUCUGCUGGUUUUGGAGGAGCAAUGGUGGCUGGAGGCAAACUAUUGGAAGCCACGAUGUUACGGGUAAUGGACCCGCUACCAACAGCAGAACCUACAACUUUUGGAACAUUGCUUGCAACUUCCAACAGAGGAUUGAGCAUCA
B4: chr2:114691908:114691909:+_ENSG00000115091_ENST00000536059|hu_hu|motif|central (ssRNA)
RNA: GGGAGUUCUACAGUCCGACGAUCGCCAAUCACAUACCCUUCAGCCACAGGAAUGACAUGAGUGACACCAUCUCCACUGUCGGUUACCGUACCGGUCAACGUCCGUUCUCCUACUUGUCUUGAGGUCCAAGAUGCAGCUAAGGCCAACAGAGGAUUGAGCAUCA
B5: chr12:111957846:111957847:-_ENSG00000204842_ENST00000535949|hu_mus|motif|central (ssRNA)
RNA: GGGAGUUCUACAGUCCGACGAUCUGCUAACUGGUUUGCCCUUGCCUCCCGUUUAAGAAAUUCUUCUGAGUUGUCCCUUUCGGAAGGAACCGUAUAUGAAGAUAAACUGCUAUCAUAUGUGGACACCACACCAUAAUUCUCUUCCAACAGAGGAUUGAGCAUCA
B6: chr2:160855017:160855018:-_ENSMUSG00000057133_ENSMUST00000039782|mus_hu|FALSE|FALSE (ssRNA)
RNA: GGGAGUUCUACAGUCCGACGAUCAUCCUUUUCGAGCUCUUCCAUUGUGGCCCAUUUACAAUGUAAGUAGGAAAAAUUUCUAUACUUAACGUAGAACAGCUCCAAGUCGAACGGAGGUUCUCCUGGGUGAACCUCCUGGACAGUCAACAGAGGAUUGAGCAUCA
B7: chr5:124911765:124911766:+_ENSMUSG00000049327_ENSMUST00000059580|mus_mus|FALSE|FALSE (ssRNA)
RNA: GGGAGUUCUACAGUCCGACGAUCAUGGGAGACCAGGAGCUCUGCCUUGGCAGCAGGUGGAGAACUUCCCAUGCAGCAGAAUUGGGGUUAGGGAGGGGGUGUGGGCUUAGUAAUUUCUGGUCCCACUACAAAACCUCACUUUUGCAACAGAGGAUUGAGCAUCA
B8: 12687287_12688270_1685_3pUTR_ENSMUSG00000031010_ENSMUST00000089302|mouse|control|control (ssRNA)
RNA: GGGAGUUCUACAGUCCGACGAUCAAUUUGGCCAGUAGAUCAUGUACAUUCUUUACAAUGGCUUCAUGUUUCCCUGCCUGUGCUGCCCAGAUAUUAUCAAGAUCUUGCAAGGUCAGAGCUUUUUCUUUUAUGACAAAGCGAAGACAACAGAGGAUUGAGCAUCA
B9: chr11:102301342:102301343:-_ENSMUSG00000034685_ENSMUST00000049057|mus_hu|FALSE|FALSE (ssRNA)
RNA: GGGAGUUCUACAGUCCGACGAUCCGGCACCUCUGUCCCAUUACCUGUCAGCAGGUGCACGCUCACAGCAGUCAGGGGCAUCAGCUCCAGCCAGGAGCCAUUGCCUGAGCUGGAGGCCUCAGUGCCCAGGAAGGCAGGGAAAGCCAACAGAGGAUUGAGCAUCA
B10: chr5:138118867:138118868:+_ENSG00000044115_ENST00000302763|hu_mus|motif|central (ssRNA)
RNA: GGGAGUUCUACAGUCCGACGAUCAGCCAAAACAUGGGCCUUCUUAGAACGGCCUCUCUUUUUAUUAGACGGCCCUUUACGGUUGGUGUUUACCAGGGUUGUAACCUGUGUAACAAGAGGCUCCAACAGUCUUUCAACAGCCAGCAACAGAGGAUUGAGCAUCA
B11: chr13:13450785:13450786:-_ENSMUSG00000021306_ENSMUST00000021738|mus_mus|FALSE|FALSE (ssRNA)
RNA: GGGAGUUCUACAGUCCGACGAUCGGCCAGAAGUAUUUAUUGUUAAUACUCUGUGGGGACCUCUUGGCUUGUAGCCUGACUAUAGCAAGCACUGGCUGAGUCAAAGAAGGCACAGUCCUUGCAUCCUACUGAGGUACUGAGGUACAACAGAGGAUUGAGCAUCA
B12: chr8:107054336:107054337:-_ENSMUSG00000031878_ENSMUST00000034349|mus_mus|FALSE|FALSE (ssRNA)
RNA: GGGAGUUCUACAGUCCGACGAUCUGAUCCAAUACCUGGCAGCACCAAGUUUUUAAGAAUUUCAGUUCCUGUAGCCGUUGCAUUUAUUAAGCAAACAUGAGCAGAUUCCAAAGCUUCUUGUCCAUGAUCACCCCACAGCCUCAGCAACAGAGGAUUGAGCAUCA
B13: chr14:78183846:78183847:+_ENSG00000119705_ENST00000557342|hu_hu|hu_hu_hu_mus_False|8_38 (ssRNA)
RNA: GGGAGUUCUACAGUCCGACGAUCUCUCAGAAAUCUUUCUUCAUCAGAUGUUUGAGCUCCGUGCAAAGCCUUUGCUCUUUGAGCUUGAACGUGGAUCUUUACUCCAUAAAGCACUGUCAGAAAAGGUUGUAGUGCAUUUAAAGACAACAGAGGAUUGAGCAUCA
B14: chr1:187193504:187193505:+_ENSMUSG00000026615_ENSMUST00000046514|mus_hu|motif|central (ssRNA)
RNA: GGGAGUUCUACAGUCCGACGAUCAUCAAUCUCAGUAUGUUCCAUCAGAUUAGAGCCAUAUAACCCAGCUGUAGUUGCAACUCGGGCCAAGUAGCGAAGUAUAGAAUUCACAUCUGUGAAUAUCACAUUUUCAGAAACAUGAAGCAACAGAGGAUUGAGCAUCA
B15: chr2:173053163:173053164:-_ENSMUSG00000038400_ENSMUST00000036248|mus_mus|motif|central (ssRNA)
RNA: GGGAGUUCUACAGUCCGACGAUCGAGCUUCUGCAUUCAGACCACACAGAACAUGUAAAUAUUUAUACACAGACAGGAGAACGGCCACACGGCCACUCAGCCUGUGUGUCCCCUGACUUCCUCUCUCUUCUCUCUUAAGAAGUGCAACAGAGGAUUGAGCAUCA
B16: chrX:153608698:153608699:+_ENSG00000102119_ENST00000428228|hu_mus|FALSE|FALSE (ssRNA)
RNA: GGGAGUUCUACAGUCCGACGAUCUAAAGAAGAGAAAAUGUCAUCACGCACCUGGUGAUGGAAGGUAUCAGCAUCUACAAGUGAGGUCCCCGGCUGGCGGAAGCUCUUGGACAUGCCCACAGACUCAGGCUCCCCGUAUGUCUUCAACAGAGGAUUGAGCAUCA
B17: chr2:18084439:18084440:+_ENSMUSG00000026743_ENSMUST00000114669|mus_hu|FALSE|FALSE (ssRNA)
RNA: GGGAGUUCUACAGUCCGACGAUCGAGCAAUGUAGGAGAUUUCUGCAGACUAGAGCUUGUUAUGCUUCCUGCAGCUGAUGCUACAGAUGAUGUUGGUGAAGCAGAAGAAACUGAGAGAUGAGAAACAUUCUCUUGAUUUUUGUUCAACAGAGGAUUGAGCAUCA
B18: chr5:74638446:74638447:+_ENSG00000113161_ENST00000287936|hu_hu|motif|central (ssRNA)
RNA: GGGAGUUCUACAGUCCGACGAUCAGGGAUGGGAGGCCACAAAGAGGCCAUGCAUUCGAAAAAGUCUUGACAACAUUGUAGCGGCAGAAUCCUUGGAUCCUCCAGAUCUCACUAGAGGCCACCGAACCCCGGCGCCGACGCUCACAACAGAGGAUUGAGCAUCA
B19: chr8:104447970:104447971:+_ENSG00000164934_ENST00000297579|hu_hu|hu_hu_hu_mus_False|68_68 (ssRNA)
RNA: GGGAGUUCUACAGUCCGACGAUCAUACACUUCCCUGCUUCGGCUCUUGUCCACAGGAAAGAUUCUAAUAGAUUUAUCAAAGCUGGCAGACACAAAUUCCUUCCCAGUGGGAGAGUAGUCCACAUCAAGUACUGCAGACACGUGCAACAGAGGAUUGAGCAUCA
B20: chr15:103022988:103022989:-_ENSMUSG00000009575_ENSMUST00000118152|mus_mus|FALSE|FALSE (ssRNA)
RNA: GGGAGUUCUACAGUCCGACGAUCCUGUCCUAGGUCAGCCUGGAAAAUGGAAGCAACAAUAUCAAUCCACACUACCAAGACAAUCAGCACAAGUCAUCCAUGAGAAUAGGACCUUAACUCCUGCCUGCAGAGAAAGACAUGAAGCAACAGAGGAUUGAGCAUCA
B21: 68738906_68739026_1707_CDS_ENSMUSG00000022054_ENSMUST00000022638|mouse|control|control (ssRNA)
RNA: GGGAGUUCUACAGUCCGACGAUCCUCCUUAGCUUCUGCUUCCUCUCCUUCACCUUCUGCCUCGGUUUCUCCUUCUUCUUCUUCCUGCUCACCUUCAUCUUUUUCACUGGAGCCUUCCUUCUCAGAUCCCCCCUCUUCUGCCUGCAACAGAGGAUUGAGCAUCA
B22: chr17:65740002:65740003:+_ENSG00000130935_ENST00000581375|hu_hu|hu_hu_hu_mus_False|1_88 (ssRNA)
RNA: GGGAGUUCUACAGUCCGACGAUCAACAAAUCUUUCUUCCCUGGACGCAAGAGUUCAUUCAUAUUAAAAAAAAUAUAUAUCCAUCAAGUUAGGUGUGGUGGCCACACCUUUACUCCCAGCACUUUGGGAGGUGGAUCCUCUAUUCAACAGAGGAUUGAGCAUCA

target: T1, UNK ZnF1-3; test: nsRBNS (natural sequence RNA bind-n-seq); RBNS binding buffer (assumed for nsRBNS): 25 mM Tris pH 7.5, 150 mM KCl, 3 mM MgCl2, 0.01% Triton X-100, 500 ug/ml BSA, 20 U/ml SUPERase-In, 4 C; UNK is unkempt and MSI1 is Musashi-1; names of the RNAs are library labels; protein concentration not given here; high values mean tight binding

Row | Binder | binding signal [enrichment R]
1 | B1 | 0.739
2 | B2 | 0.471
3 | B3 | 1.04
4 | B4 | 1.19
5 | B5 | 0.976
6 | B6 | 0.672
7 | B7 | 1.16
8 | B8 | 0.836
9 | B9 | 0.896
10 | B10 | 1.13
11 | B11 | 0.896
12 | B12 | 1.57
13 | B13 | 0.727
14 | B14 | 1.25
15 | B15 | 0.889
16 | B16 | 1.28
17 | B17 | 0.977
18 | B18 | 1.14
19 | B19 | 1.31
20 | B20 | 1.46
21 | B21 | 0.321
22 | B22 | 1.1
